# Reference: PubChem BioAssay AID686971 (National Center for Advancing Translational Sciences (NCATS), 2013)
# The campaign covered roughly 360,000 compounds. About 7,500 (2.1%) were called active. Inconclusive results, whose numbers are uncertain, are shown with a selection of clear calls. Calls come from the whole dose curve; as a rule, active = well fitted cell-killing curve with a large enough effect; inconclusive = small, poorly fitted or top-dose-only effect, or effect the other way, or another doubt; inactive = no such curve, though single readings can be large or run the other way. Potencies of inconclusive entries are left out as doubtful fits.
# Test: qHTS for induction of synthetic lethality in tumor cells producing 2HG: qHTS for the HT-1080-IDH1KD cell line;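 for activity, negative = toxicity: 0% = DMSO wells and -100% = cell-free medium wells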
# Conditions: HT-1080 IDH1 knockdown viability, ATP luminescence, 48 h; activity, negative = toxicity: at 46.1 µM (top of the series) unless noted
# Method in brief: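 In this qHTS, HT-1080 cells depleted of IDH1 are exposed for 48 h at 37 °C to compound titrations. Toxicity is scored from CellTiter-Glo luminescence, with DMSO as full viability and medium alone as none.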
# Potency is the fitted concentration of half-maximal effect; tags give direction and shape of the fitted curve.
SMILES,Potency,"activity, negative = toxicity"
COc1ccccc1/C=C/C(=O)c1ccc(Cl)cc1,"inconclusive [cytotoxic, single point]",–
COc1cc(S(=O)(=O)N2CCOCC2)cc(C(=O)c2nccn2C)c1OC,–,inactive: 7.68% [at 9.24 µM]
Cc1c(C(=O)NCCSCc2ccccc2)cccc1[N+](=O)[O-],–,inactive: -2.62%
CCC1=Nc2cc(C(=O)NCCCN3CCOCC3)ccc2Sc2ccccc21,"inconclusive [cytotoxic, single point]",–
CCOC(=O)c1ccc(NC(=O)COc2ccc(CNC3CCCCC3)cc2OC)cc1,active: 16.4 µM,–
O=c1[nH]c2ccc(Cl)cc2c(-c2ccccc2)c1CN1CCOCC1,"inconclusive [cytotoxic, single point]",–
CCCCn1cnc2c(SCc3ccc(Br)cc3)nc(N)nc21,active: 16.4 µM,–
COc1ccc(OC)c(NC(=O)Nc2nc(C(N)CCc3ccccc3)cs2)c1 (stereo not given),active: 20.6 µM,–
O=C(CNC(=O)c1ccccc1)N=Nc1c(O)[nH]c2ccc(Br)cc12,–,inactive: -5.47%
Cc1ccccc1N=CC1=C(O)c2ccccc2C1=O,"inconclusive [cytotoxic, single point]",–
Cc1ccc(-n2c(C)nnc2SC(C)C(=O)N2CCCC2)cc1 (stereo not given),–,inactive: 15%
Cc1nc2nc(N)nn2c(C)c1C/C=C/c1ccccc1,–,inactive: 3.6%
C/C(=N/NC(=O)c1ccc(-c2ccccc2)cc1)c1cc(O)cc(O)c1,"inconclusive [cytotoxic, partial curve]",–
Cc1c(NC(=O)CSc2nnc(C(C)Oc3ccc(Cl)cc3)n2-c2ccccc2)c(=O)n(-c2ccccc2)n1C (stereo not given),"inconclusive [cytotoxic, single point]",–
Cc1ccc(C(=O)Nc2nc(C)c(C(=O)Nc3ccc4c(c3)CCC4)s2)cc1,active: 4.11 µM,–
COc1ccc(CC(=O)NCc2cccs2)cc1,"inconclusive [cytotoxic, partial curve, poor fit]",–
Cc1ccc(NC(=O)c2cc(-c3ccc(C)o3)nc3ccccc23)cc1,"inconclusive [cytotoxic, single point]",–
O=c1c(-c2ccc(Cl)cc2)[n+]([O-])c2ccccc2n1O,"inconclusive [cytotoxic, single point]",–
COC(=O)c1ccc(C(=O)NC2CCCc3c2cnn3-c2ccccc2F)nc1 (stereo not given),"inconclusive [cytotoxic, full curve]",–
Nc1c2c(nc3sc4c(c13)CCCC4)-c1ccccc1CC2,active: 18.4 µM,–
COc1ccc(C(=O)NC(=S)N2CCN(c3ccc([N+](=O)[O-])cc3)CC2)cc1,–,inactive: 1.37%
Cc1csc(-c2ccc3cc(Cl)cc(Cl)c3n2)n1,–,inactive: 16.4%
O=C(c1ccc(S(=O)(=O)N2CCOCC2)cc1)N1CCN(c2ccccc2)CC1,–,inconclusive: 12.7%

SMILES,Potency,"activity, negative = toxicity"
COc1ccc(Cn2c(-c3ccc(C)cc3)nc3c(c(=O)c4ccccc4n3C)c2=O)cc1,"inconclusive [cytotoxic, single point]",–
O=C(N/N=C/c1cccnc1)c1cc(-c2ccccc2OCc2ccccc2)n[nH]1,"inconclusive [cytotoxic, partial curve]",–
Cn1c(=O)c2cc(NC(=O)NCc3ccc(Cl)cc3Cl)ccc2n1Cc1ccc(F)cc1,"inconclusive [cytotoxic, single point]",–
CCN(CC)S(=O)(=O)c1cc(OC)ccc1N=Nc1ccc(O)c2ncccc12,"inconclusive [cytotoxic, full curve]",–
Cc1ccc(OCCN2C(=O)C(=O)c3cccc(C)c32)cc1,–,inactive: 11%
Cc1oc(-c2ccccc2)nc1Cn1cccc1C1=NC(c2ccccc2)CO1 (stereo not given),"inconclusive [cytotoxic, single point]",–
COc1ccc(C(=O)c2sc(Nc3cccc(OC)c3)c(C(=O)Nc3cccc(C)c3C)c2N)cc1,"inconclusive [cytotoxic, single point]",–
CCOCCc1nnc(NC(=O)c2ccc(OC)c(OC)c2)s1,"inconclusive [cytotoxic, partial curve]",–
COc1ccc(CNC(=O)c2cn(Cc3ccc(S(=O)(=O)N(C)C)cc3)c(=O)s2)cc1,"inconclusive [cytotoxic, single point]",–
COc1ccc(-c2nnc3c4ccccc4c(C)nn23)cc1S(=O)(=O)N1CCN(CCO)CC1,active: 8.91 µM,–
CN(C)NC(=S)Nc1ccc(Cl)cc1,"inconclusive [cytotoxic, single point]",–
CN(C)S(=O)(=O)c1cccc(NC(=O)c2cccc(NS(=O)(=O)c3ccccc3)c2)c1,"inconclusive [cytotoxic, single point]",–
COC(=O)c1ccc(/C=N/Nc2nc(N3CCCCC3)nc(N3CCCCC3)n2)cc1,–,inactive: 6.96%
COCCOC(=O)N/C=C\c1nc2ccccc2c(=O)[nH]1,"inconclusive [cytotoxic, single point]",–
CCN(CC)c1nc(-c2ccccc2)nc2ccccc12,–,inactive: -27.6%
CC1c2ccccc2SC(CCCN(C)C)c2ccccc21 (stereo not given),"inconclusive [cytotoxic, single point]",–
COc1ccc(C(=O)NNC2=C(C(=O)C(F)(F)F)CCC2)cc1,"inconclusive [cytotoxic, partial curve, poor fit]",–
COc1ccc(CNc2cc([N+](=O)[O-])ccc2OC)cc1,–,inactive: 0.952% [at 9.24 µM]
COc1ccc(CNCCC(c2ccccc2)c2ccc(OC(C)C)cc2)cc1OC (stereo not given),active: 18.4 µM,–
C=CC[C@@H](CC(=O)N(CCO)Cc1ccccc1)C(=O)N[C@H](COC(=O)[C@@H](CC=C)Cc1ccc(F)cc1)Cc1ccccc1,"inconclusive [cytotoxic, single point]",–
Cc1ccc2cc(C)c(N3CCC(C)CC3)nc2c1,"inconclusive [rising, partial curve]",–
O=C(/C=C/c1cccs1)NC(=S)NNC(=O)Cc1cccs1,"inconclusive [cytotoxic, partial curve]",–
